Measured values as given in PubChem BioAssay AID1240 (Sanford-Burnham Center for Chemical Genomics, 2008).
“And” between values parts separate entries of the source, which are not always exact repeats. Identical values can stand only once. Among all 50,000 compounds or so, about 800 (1.6%) showed an effect of 50% or more. The list shows a part of the results.

The compounds below were run against Bcl-2-like protein 10 (Homo sapiens) (UniProt Q9HD36) (assay: Phenotype converters, Bcl-B/TR3 peptide binding displacement, primary biochemical FP (AID 1240;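 note: 0% = Bcl-B with tracer peptide and DMSO and 100% = tracer peptide lacking Bcl-B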)). Conditions: GST-Bcl-B / FITC-TR3 peptide fluorescence polarization; stronger effect = higher value; compound at 3.75 mg/L.
UniProt Q9HD36, sequence (Q9HD36 whole entry, looked up): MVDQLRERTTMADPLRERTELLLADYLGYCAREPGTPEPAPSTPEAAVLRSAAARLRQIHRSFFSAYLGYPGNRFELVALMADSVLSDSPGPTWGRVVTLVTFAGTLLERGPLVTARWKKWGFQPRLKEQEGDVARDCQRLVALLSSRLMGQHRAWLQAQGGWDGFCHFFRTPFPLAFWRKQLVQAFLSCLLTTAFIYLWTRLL

Structure (SMILES)	displacement
CCOc1ccccc1NC(=O)c1cncc(Br)c1	10%
COC12CCCCC1OC1(OC)CCCCC1O2 (stereo not drawn)	4.6%
Cc1ccc([N+](=O)[O-])cc1N[C@@H]1OC[C@@H](O)[C@H](O)[C@H]1O	-2.2%
Cc1cccc(OCC(=O)Nc2cccc(Cl)c2Cl)c1	3.2%
Cc1cc(NC(=O)/C=C/C(=O)O)ccc1NC(=O)c1cccs1	4.5%
COc1cccc(/C=C2/SC(=S)N(CCC(=O)N3c4ccccc4Sc4ccc(Cl)cc43)C2=O)c1	14.4%
COc1cc(OC)cc(C(=O)Nc2ccc(C)cc2Br)c1	-0.3%
CC(=O)c1sc(NC(=O)c2ccc([N+](=O)[O-])s2)nc1-c1ccccc1	12%
COc1ccc(C2Sc3ccccc3NC3=C2C(=O)c2ccccc23)cc1 (stereo not drawn)	-2.8%
CC(=O)NC1=NC(=O)/C(=C/c2cc(C)n(-c3ccc(NC(C)=O)cc3)c2C)S1	-32.2%
COc1ccc(/C=C2/SC(NC(C)=O)=NC2=O)c(OC)c1	133%
COc1cc(/C=C2\SC(=Nc3ccc(C)c(Cl)c3)NC2=O)cc(OC)c1OC	-14%
COc1ccc(C(=O)N=Nc2c(O)[nH]c3c(C)cc(Br)cc23)cc1	3%
CCOc1ccccc1NC(=O)CN(c1ccc(Br)cc1)S(C)(=O)=O	-3.2%
C/C(=C1/C(=O)N(c2nc3ccccc3s2)N=C1C(F)(F)F)N1CCCC1	13%
O=C1CSC(c2ccccc2F)N1c1ccccc1 (stereo not drawn)	-1.5%
CC1=CC(=NS(=O)(=O)c2ccc(C)cc2)C=C(C)C1=O	4.7%
S=c1oc(-c2ccccc2Cl)nn1CN1CCCCC1	40.1%
COc1ccc(/C=C2/SC(=S)N(CCC(=O)N3CCN(C4=NC(=O)/C(=C\c5ccc(C)cc5)S4)CC3)C2=O)cc1	7.5%
COc1ccccc1N1CCN(C(=O)c2cccc(C)c2)CC1	-13%
COc1ccccc1/C=C1/SC(=S)N(NC(=O)c2ccc(Cl)cc2)C1=O	-61.5%
COc1ccc(C(=O)NCCSCc2ccc(Br)cc2)cc1	3.2%

Structure (SMILES)	displacement
c1ccc(-c2nnc(-c3ccccn3)nc2-c2ccccc2)cc1	1.3%
O=S(=O)(Nc1nc2ccccc2s1)c1cccc2cccnc12	-6.7%
CCOc1ccc(-c2cc(C)n3nc(C(=O)Nc4ccc(C(C)=O)cc4)cc3n2)cc1	18.2%
Cc1ccccc1NC(=O)CC(=O)c1ccccc1	-11.6%
CC(=O)OC1CCC2(C)C(=CCC3C2CCC2(C)C(C(C)=NO)CCC32)C1 (stereo not drawn)	5.3%
COc1ccc(C(=O)Oc2ccc3c4c(c(=O)oc3c2)CCC4)cc1	-4%
Cc1ccc(OCCOc2ccc(C=O)cc2)cc1	5.5%
Cc1cc2nc(-c3cc(NC(=O)c4ccco4)ccc3O)oc2cc1C	27.7%
O=C(Cc1ccccc1)Nc1ccccc1NC(=O)Cc1ccccc1	2.9%
CC(C)C12CN3CC(C(C)C)(CN(C1)C31C(=O)Nc3ccccc31)C2=O (stereo not drawn)	-5.1%
CN1C(=O)/C(=C\c2ccc(-c3cc(Cl)cc(Cl)c3)o2)SC1=S	9.6%
CCC(=O)Nc1ccc(NC(=S)NC(=O)c2ccco2)cc1	10%
O=C(CN(c1ccc(Br)cc1)S(=O)(=O)c1ccccc1)Nc1cccc2cccnc12	-1.7%
Cc1ccc(S(=O)(=O)N2CCN(S(C)(=O)=O)C2c2ccccc2)cc1 (stereo not drawn)	9.6%
CC(CN1CCOCC1)C(=O)c1ccccc1 (stereo not drawn)	10.6%
O=C(CSC1CC(=O)N(c2cccc(Br)c2)C1=O)Nc1ccc(Cl)cc1 (stereo not drawn)	-3.8%
COc1ccccc1C(=O)Nc1nc(-c2ccc(Br)cc2)cs1	-8.5%
c1cc(CNc2ccc(N3CCOCC3)cc2)ccn1	15.6%
CCOC(=O)c1sc(NC(=O)COc2ccc(Cl)cc2Cl)c(C(=O)OCC)c1C	-4.7%
CC(=O)Nc1ccc(OCC(O)Cn2c3ccccc3c3ccccc32)cc1 (stereo not drawn)	-7.3%
O=[N+]([O-])c1ccccc1NCCNS(=O)(=O)c1ccccc1	13.6%
CCOc1ccc(C(=O)N2CCN(c3ccccc3)CC2)cc1	-1.9%

Structure (SMILES)	displacement
CN(C)S(=O)(=O)N1CCN(c2c(Cl)cccc2[N+](=O)[O-])CC1	0.9%
Cc1ccc(C(=O)N2N=C(c3ccncc3)CC2(O)C(F)(F)F)cc1 (stereo not drawn)	-4.8%
Cc1cccc(/C=N/NC(=O)Cc2nnc(N)s2)c1	-0.8%
Cc1cc(C)c(C(N)=O)c(Nc2ccc(Cl)cc2)n1	-24.7%
CCOc1cc(C=C2C(=O)NC(=S)NC2=O)ccc1OCc1ccc(Cl)cc1	7.7%
COc1ccc(C(=O)/C=C/c2ccccc2[N+](=O)[O-])cc1OC	2.7%
COc1ccc(NC(=O)c2nc[nH]c2C(=O)Nc2ccc(OC)cc2)cc1	14.4%
COc1ccc(C2=NN(C(C)=O)C(c3ccccc3)C2)cc1 (stereo not drawn)	11.6%
COc1ccc(/C=C2\SC(=Nc3cccc(Cl)c3C)NC2=O)cc1C	-32.2%
CN1CCN(NC(=O)CN2C(=O)/C(=C/c3ccccc3Cl)SC2=S)CC1	-17.5%
Cc1ccccc1NC(=O)c1ccc(OCC(C)C)cc1	5.9%
COc1cccc(/C=C2/C(=O)NN(c3ccc(Br)cc3)C2=O)c1	19.9%
COC(=O)C1=C(C)NC(C)=C(C(=O)OC)C1/C=C/c1ccccc1	-13.5%
CC(=O)Nc1ccc(S(=O)(=O)NC(C)(C)C)cc1	-5.4%
C=CCc1ccccc1OCCOc1c(Br)cc(/C=N/n2cnnc2)cc1OC	2.9%
Cc1cc(=O)[nH]c(SCc2cccc(Oc3ccccc3)c2)n1	-8% and 5.2%
Cc1ccccc1NC1=C(Cl)C(=O)N(c2cccc(Cl)c2Cl)C1=O	5.8%
COC(=O)CN(c1ccc(OC)cc1)S(=O)(=O)c1ccc(NC(C)=O)cc1	4.7%
O=C(/C=C/c1ccccc1F)c1c(-c2ccccc2)c2cc(Cl)ccc2[nH]c1=O	-26.3%
S=C1NC(=S)/C(=C\c2ccc(-c3ccc(Br)cc3)o2)S1	37.5%
O=C1C(=Cc2cccc(Cl)c2)C(=O)c2ccccc21	18.1%
O=C(COCC(=O)N1CCOCC1)NCC(=O)N1CCOCC1	2.9%

Structure (SMILES)	displacement
N#Cc1ccc(N=Cc2cccc(O)c2O)cc1	-1.9%
COc1cccc(-n2c(O)c(C3=c4cc(Br)ccc4=NC3=O)sc2=S)c1	8.7%
O=C(CCN1C(=O)/C(=C/c2cccs2)SC1=S)Nc1ccc(F)cc1	10.6%
CCCC(C)NC(=O)c1cc(Cl)ccc1Cl (stereo not drawn)	1.1%
COC(=O)Nc1sc2c(c1C(=O)OC)CCCCC2	23%
Cc1cccc(NC(=O)/C(C#N)=C/c2ccc(-c3ccccc3[N+](=O)[O-])o2)c1	11.1%
Cc1nnc(NS(=O)(=O)c2ccc(F)cc2)s1	7.8%
Cc1cc(C)cc(N2C(=O)NC(=O)/C(=C\c3ccccc3C)C2=O)c1	6.3%
C/C(=N\NC(=O)c1ccco1)c1ccc(N)cc1	-5%
O=C(NCCNc1ccc([N+](=O)[O-])cc1)c1cccnc1	-8.5%
COc1ccc(OC)c(NC(=O)CN(c2ccc(Br)cc2)S(C)(=O)=O)c1	-12.8%
O=C(Nc1cc(Cl)cc(Cl)c1)c1ccc(-c2ccc([N+](=O)[O-])cc2)o1	5.1%
CCc1ccc2c(c1)C(O)(CC(=O)c1ccc(Br)cc1)C(=O)N2 (stereo not drawn)	-22.7%
COc1ccc(N=C2C(=O)Nc3ccc(C)c(Br)c32)cc1	13.6%
COc1ccc(NC(=O)c2ccc(N(Cc3ccc(Cl)cc3)S(C)(=O)=O)cc2)c(OC)c1	26.7%
COCCCNS(=O)(=O)c1ccc(F)cc1	1.6%
Cc1ccc(C)c(N2CC(C(=O)Nc3ccc([N+](=O)[O-])cc3)CC2=O)c1 (stereo not drawn)	3.2%
COc1ccc(CNc2ccc(N3CCOCC3)cc2)cc1OC	22.7%
C=CCC1(O)CC(c2ccccc2)NC(c2ccccc2)C1C(C)C (stereo not drawn)	-6.6%
Cc1ccc(N2C(=O)NC(=O)/C(=C\c3ccc(-c4cccc([N+](=O)[O-])c4)o3)C2=O)cc1	-5.9%
COc1ccc(S(=O)(=O)N(CCc2ccccc2)CC(=O)NCc2cccnc2)cc1	-13.2%
Cc1ccccc1NS(=O)(=O)c1cccc(C(=O)Nc2ccc(Cl)cc2)c1	-4.4%

Structure (SMILES)	displacement
CC1(C)CC(=O)c2c(oc3ccc(NS(=O)(=O)c4cc(Cl)ccc4Cl)cc23)C1	0.3%
Cc1c(C(=O)Oc2c(Br)cc(Br)cc2Br)cccc1[N+](=O)[O-]	3.8%
Cc1cc(NC(=O)C23CC4CC(CC(C4)C2)C3)no1	-3.4%
O=C1NN(c2ccccc2)C(=O)/C1=C\c1ccccc1O	37.7%
CCCCCOC(=O)COc1ccc(S(=O)(=O)c2ccc(OCC(=O)OCCCCC)cc2)cc1	3.8%
NS(=O)(=O)c1ccc(NC(=O)/C(=C\c2ccc(Br)cc2)NC(=O)c2ccccc2Cl)cc1	3.5%
CC1(C)CC(=O)C2=C(C1)Nc1sc(C#N)c(N)c1C2c1ccccc1 (stereo not drawn)	-7.9%
CC(=O)Nc1ccc(NC2=C(Cl)C(=O)c3c(Cl)c(Cl)c(Cl)c(Cl)c32)cc1	16.4%
C=CCc1ccccc1OCCOc1c(Br)cc(C=C2C(=O)NC(=S)NC2=O)cc1OC	3.5%
COC(=O)c1c(-c2cc(C)ccc2C)csc1N	-6.2%
CN(C)c1ccc(/C=C2/C=C(c3ccccc3)OC2=O)cc1	-7.2%
Cc1cc2nc3s/c(=C/c4ccc([N+](=O)[O-])cc4)c(=O)n3c2cc1C	0.7%
NS(=O)(=O)c1cccc(NC(=O)c2ccc(OCc3ccccc3)cc2)c1	-6.3%
CCOC(=O)C1=C(c2ccccc2)N=c2s/c(=C\c3cccc(O)c3)c(=O)n2C1c1cccs1 (stereo not drawn)	-10.5%
Cc1ccc(OCCSc2nc3ccccc3[nH]2)cc1C	3%
CCOc1ccc(C2Nc3ccccc3NC3=C2C(=O)CC(c2ccccc2)C3)cc1 (stereo not drawn)	5%
Cc1ccc(C2CC(C(F)(F)F)n3nc(C(=O)N(Cc4ccccc4)Cc4ccccc4)cc3N2)cc1 (stereo not drawn)	8.1%
O=S(=O)(CC(O)COCc1ccc(Cl)cc1)c1ccccn1 (stereo not drawn)	-4.8%
COc1ccc(S(=O)(=O)CCc2nnc(-c3ccc(Br)cc3)o2)cc1	5%
CCOC(=O)/C(=N\O)C1=NC(C)(C)C(C)c2ccccc21 (stereo not drawn)	11.4%
